Measurements reported in the RNAGym collection of RNA variant scans (doi:10.1093/nar/gkz1192).
Read counts are not given, so values of variants with three or more changes are uncertain.

B1: CPEB3 Ribozyme (parent)
chain: UAACAGGGGGCCACAGCAGAAGCGUUCACGUCGCAGCCCCUGUCAGAUUCUGGUGAAUCUGCGAAUUCUGCUGUAUAUCUC

Variants of: B1
Assay: self-cleavage, relative activity (ratio to wild type); higher = more cleavage; in vitro, sequencing
Procedure, shortened: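 CPEB3 self-cleaving ribozyme mutant libraries were made by rounds of error-prone PCR, barcoded, and transcribed in vitro with T7 RNA polymerase for 5 hours at 37°C. Cleavage occurred during transcription and a 15 min DNase I step before EDTA stop. RNAs were reverse transcribed with template switching and Illumina-sequenced, with DNA sequencing mapping barcodes to variants. Relative activity is the variant's cleaved/total read fraction divided by wild type's (minimum 5 reads), averaged across three batches.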

Row | Variant | self-cleavage
1 | C11U U51A U78G | 0.28
2 | C11U U51C A64G | 0.23
3 | C11U U58A C79G | 0.12
4 | C11U U58G A64U U72C U76A | 0.06
5 | C11U U60A U69A | 0.12
6 | C11U U60A U76C U78C | 0.12
7 | C11U U60C U69C A77U | 0.08
8 | C12A A13C A21G U25A G30A A35G | 0.3
9 | C12A A13C G61A U78C | 0.4
10 | C12A A13G U31A A35U U60A | 0.14
11 | C12A A15U A18U C27G A47G A64G | 0.04
12 | C12A A15U A28U U48C U67C | 0.17
13 | C12A A15U A35G | 0.79
14 | C12A A15U A35G U41C U54C U60A U69A | 0.12
15 | C12A A15U A64G U72C | 1
16 | C12A A15U G24U A57G U66C U76C | 0.04
17 | C12A A15U U54G U72C | 0.74
18 | C12A A18U A20U U54A | 0.26
19 | C12A A20G U43C U72C | 0.46
20 | C12A A21C U51A U58C U60A | 0.07
21 | C12A A21G C29G C59U A65G | 0.14

Row | Variant | self-cleavage
22 | C12A A21G U31C G33A | 0.1
23 | C12A A28G C40A A45U G70A U74C | 0.14
24 | C12A A28U C40A U43A | 0.23
25 | C12A A35U U54C U80A | 1.3
26 | C12A A45G U54C U72A | 0.61
27 | C12A A45U G73C | 1.13
28 | C12A A64U U67A U69G | 0.26
29 | C12A A65G U69A | 0.33
30 | C12A C17G G22U U41A | 0.09
31 | C12A C39A A65G U67A | 0.18
32 | C12A G16A U60C U69A U72C | 0.1
33 | C12A G24U U26C | 0.17
34 | C12A G61A C81U | 1.08
35 | C12A U25C U26C A35G A57C | 0.09
36 | C12A U25C U41A A57G A64G | 0.22
37 | C12A U26C U31C | 0.31
38 | C12A U26C U41A U58A C62U | 0.1
39 | C12A U31C U43A U80C | 1
40 | C12A U31G U49C | 0.18
41 | C12A U41A U43C U72C | 0.31
42 | C12A U43C U60A | 0.31

Row | Variant | self-cleavage
43 | C12A U48C U54C | 0.42
44 | C12A U49C A57G U80C | 0.26
45 | C12A U54A U72C | 1.1
46 | C12G A13C A18U U25C U60C | 0.06
47 | C12G A13G A20U A35G U74A | 0.13
48 | C12G A13G A20U A65G U66A | 0.33
49 | C12G A13G G16U A18U A65G | 0.08
50 | C12G A13G U25C A35U A56G U58C A64G | 0.05
51 | C12G A15U U66C U76C | 0.2
52 | C12G A18C U25C U26C U43C C68G U69C | 0.22
53 | C12G A18U U41C U54C U58A U67C | 0.1
54 | C12G A21G A28U A56G | 0.04
55 | C12G A21U U51C | 0.18
56 | C12G A35G A57G U58A | 0.22
57 | C12G A56U A64G | 0.2
58 | C12G U25C U60A | 0.16
59 | C12G U26A C32G U69A | 0.03
60 | C12G U31A A47G U60C | 0.09
61 | C12G U48C U60A U78G U80C | 0.07
62 | C12G U49C U51C | 0.24
63 | C12G U51C U69A U72A | 0.15

Row | Variant | self-cleavage
64 | C12U A13G A15G U43A A64G | 0.1
65 | C12U A13G A45U U49C A65G | 0.06
66 | C12U A13G U41C A64G | 0.39
67 | C12U A13G U49C A65U U66C | 0.07
68 | C12U A13U U43A U72C | 1.26
69 | C12U A13U U43C U72C | 0.31
70 | C12U A15C G42U A56G | 0.16
71 | C12U A15C U25C C27U | 0.12
72 | C12U A15G A28G A45U A56G | 0.14
73 | C12U A15U A18C G55A | 0.06
74 | C12U A18C U60A | 0.33
75 | C12U A18G C29U U54A A56G A64G U78C | 0.19
76 | C12U A18G G46A | 0.18
77 | C12U A18G U25C U78C | 0.2
78 | C12U A18G U49A | 0.83
79 | C12U A18U A45G U49C | 0.15
80 | C12U A20G A35C A45G A47G U48G U78C | 0.11
81 | C12U A20G A35U | 0.68
82 | C12U A20G A35U U43A U74G | 1.27
83 | C12U A20U U26C A35U U66C | 0.06
